# Results published in the RNAGym collection of RNA variant scans (doi:10.1073/pnas.2313332121).
# Variants at the background level are over-represented here.
# B1: TPR 5TU (parent)
# chain: GGAUCUUCUCGAUCUAACAAAAAAGACAAAUCUGCCACAAAGCUUGAGAGCAUCUUCGGAUGCAGAGGCGGCAGCCUUCGGUGGCGCGAUAGCGCCAACGUUCUCAACUAUGACACGCAAAACGCGUGCUCCGUUGAAUGGAGUUUAUCAUG
# Variants of: B1
# Assay: polymerase ribozyme fitness, log enrichment relative to wild type (log ratio); higher = more active; in vitro selection for triplet polymerase activity
# How it was run: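 Each subunit of a heterodimeric triplet polymerase ribozyme was represented by a PCR-built, transcribed mutant library that underwent triplicate single-round in vitro selection with frozen incubation at −7 °C. Extended constructs were recovered by gel excision, streptavidin-bead capture and RT-PCR, and Illumina sequencing of input and output libraries kept genotypes with ≥10 input reads and ≥1 read per output. Fitness is the logarithm of genotype enrichment relative to wild-type enrichment, from inverse-variance-weighted replicate averages, with a logarithm base of 2.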
row,Variant,polymerase ribozyme fitness (log ratio)
1,C36U A41C G42C C85U U146G,≤ -4.2
2,C35U U82A C93A U101G,≤ -4.2
3,C35A U134C,-3.61
4,C36U A52C A106U,≤ -4.2
5,C35U G48U C96U U101G C108A A115U G133A A150G,≤ -4.2
6,C36A A47C G59U,≤ -4.2
7,C36U A91U,≤ -4.2
8,C35U C38G G86A G126A G136U,≤ -4.2
9,C36U A39U A52U U78G G83U A91G,≤ -4.2
10,C36U A47C U82G C96G G128U,≤ -4.2
11,C35A G94C,-2.74
12,C35U A39G C51U C95G A138C,≤ -4.2
13,C35G C85U A113G C114U A115U C123U,≤ -4.2
14,C36U A41C G42C G88U C96G,≤ -4.2
15,C35U C87U A107G G126A G136U G140U,≤ -4.2
16,C35G A91G U151G,≤ -4.2
17,C35G G48A A49C A89C C105U A107U,≤ -4.2
18,C36A C76U,≤ -4.2
19,C35U A52U C95G A106U A107G C118G,≤ -4.2
20,C35A U44A G46U G58A A89U G92A G100A C116U A122G,≤ -4.2
21,C35U U45A G83C C85G A97G G141C,≤ -4.2
22,C35U A41G G84C G112U,≤ -4.2
23,C35G U55A G58A G86U A147U,-4.06
24,C35U U56A G74C A89C U101G C125A U130A,≤ -4.2

row,Variant,polymerase ribozyme fitness (log ratio)
1,C35U C93G G141A,-3.56
2,C35G U55A C85U,≤ -4.2
3,C36A U56A C95U A107C A137G G141A,≤ -4.2
4,C35U C85U A97U U111C U144C,≤ -4.2
5,C35U C43A A60C U101G,≤ -4.2
6,C35U A39C G59A A91C C114G A147C,≤ -4.2
7,C35U C43U C93U,≤ -4.2
8,C35G C76A,-4.13
9,C35G C76U,-3.99
10,C36A C76U C85U C96G G128A G141A,≤ -4.2
11,C36A G68U C72U G94C,≤ -4.2
12,C36A C79U C85U C95A C108U C149U,≤ -4.2
13,C35U U56A G59A G71A C85G C108G,≤ -4.2
14,C36A C87G A91C G92C A97U C125G,≤ -4.2
15,C36U A66U A120C U144G,≤ -4.2
16,C36A C43G C54U C69G C95U A107C,≤ -4.2
17,C35U G58C U77A A120U A122G,≤ -4.2
18,C35U A52G C76A A89C U145A,-3.45
19,C36A A64C C108A U148A,≤ -4.2
20,C36U C63U C96U A138C U146A U148C,≤ -4.2
21,C36A G70U G80U C105U,-0.569
22,C35U A39C G50A G80C G84C A89C C93G C96G,≤ -4.2
23,C36G G80U C85U C87A U109G U139C A142G,≤ -4.2
24,C35U G48A C54U G81A G141A,≤ -4.2

row,Variant,polymerase ribozyme fitness (log ratio)
1,C35U G71U,-3.53
2,C36A A66U C93G,≤ -4.2
3,C35G U53A A97U C108A,≤ -4.2
4,C35U A52C U53G C54U U82G C132U U144A,≤ -4.2
5,C36A U44A G62C C93U U135G U139C U144A,≤ -4.2
6,C36G G81C C87A A107G C108U A110C,≤ -4.2
7,C36U A39C C69G G84A C105G C108A,≤ -4.2
8,C36U A39G G68A G81A C87U C93G A107C A110C A119U,≤ -4.2
9,C36U A39C G50A C87A C96G A137U G141A,≤ -4.2
10,C36G C93U U146A,≤ -4.2
11,C35U C75U G83A G84A C95U C96U,-1.5
12,C35U C85A G86U U90A G94U,≤ -4.2
13,C36A C76G U82A,≤ -4.2
14,C36A U55G U101A,≤ -4.2
15,C35U A41G C96A U144A,-0.485
16,C35U G58C U90G U104A G126A U135A U145G,≤ -4.2
17,C35U C43A G50A U82A,≤ -4.2
18,C35U A49C G141A,≤ -4.2
19,C35U G42U C57U U109A U130A,≤ -4.2
20,C35U G42A G65C U77G C87A U101G G143A U151A,≤ -4.2
21,C35G U139C,≤ -4.2
22,C36A G50C U53A U56A C93U A115U,≤ -4.2
23,C35U G59A A66C G84U C93U A98U G100A A106C A142C,≤ -4.2
24,C36A A39G G59U C85A A98U A107C,≤ -4.2

row,Variant,polymerase ribozyme fitness (log ratio)
1,C36U C63U G65A G74A G143C U144C,≤ -4.2
2,C35G U56G C87A U90G,≤ -4.2
3,C35U G58A A60C C93G C96U C105U C116U,≤ -4.2
4,C36G U56A A98G,-3.71
5,C36A G70A A73G G86C A106U C108U,≤ -4.2
6,C36G C99G C132U U146C,-4.06
7,C36A A49C G71U G92A A107G U145C,≤ -4.2
8,C35G G59U G88C G152C,≤ -4.2
9,C35G C54A U56A C79G C99U G126U G143U,≤ -4.2
10,C36G A37C A73U U78G C118A U145C,≤ -4.2
11,C35U C38U C76G C85G U101G A138C A147G U151G,≤ -4.2
12,C36A C57U A66C C99A,≤ -4.2
13,C35G U78A U90A C114A C116G C125G,≤ -4.2
14,C35A U53A G62A,≤ -4.2
15,C36A C95U C125G U127C,≤ -4.2
16,C36G C87U A106U,≤ -4.2
17,C35A U56A C93U A115U A120C U148A,≤ -4.2
18,C36G A98U U109G C132A,≤ -4.2
19,C35G G59U C95U C103A C114U C125G G143U U144G,≤ -4.2
20,C36A C63U,-4.08
21,C36A C95U,-3.7
22,C36G C105U,-3.04
23,C36A G48A C93U A113U C118G U144G A150U,≤ -4.2
24,C35U A49G A66C U82G G83A C103A A115G C132U,≤ -4.2

row,Variant,polymerase ribozyme fitness (log ratio)
1,C35U C87A C93U G136U G140A,≤ -4.2
2,C36U A107G U151A,≤ -4.2
3,C36A G59C A91C U151G,≤ -4.2
4,C36G G62A G74C C96U A98C A115U G124C C149U,≤ -4.2
5,C35A U109G C118U U146A,≤ -4.2
6,C36U C54U A64C C85G G88A C105U,≤ -4.2
7,C35U U44A C93U U134C,≤ -4.2
8,C36G C54A C93G U146C A150U,≤ -4.2
9,C36G C95U,-3.45
10,C35G U56A G58A A91C,≤ -4.2
11,C36U A66G G112A A142U,≤ -4.2
12,C36U A142C,-2.05
13,C35G G83C C103A,≤ -4.2
14,C35U C129U,-0.479
15,C35A G88U C103U C125G,≤ -4.2
16,C35U G71U A98U C114G,≤ -4.2
17,C35G G58C G92U C125G A150U,≤ -4.2
18,C36U A52G C69U C85U U109G C118A,-3.73
19,C36G U130C,-3.89
20,C36U A40U A41U C54U G58A G67A C93A C114U G141A U144G,≤ -4.2
21,C35U G59A G83U A98C G128C,-3.94
22,C35U G42U C57A A150G,≤ -4.2
23,C36A C54A U55G C95G G112U C129U,≤ -4.2
24,C36A C54G U61G C79A G80A U102C,≤ -4.2

row,Variant,polymerase ribozyme fitness (log ratio)
1,C36A G62A G86U G112C,≤ -4.2
2,C36G C69G U78C,≤ -4.2
3,C35G G59C G68C G124C G136A U151G,≤ -4.2
4,C36G U45A G50C A52C C93G C118U G133C,≤ -4.2
5,C35A U44A U82A C87U A89C A120U,≤ -4.2
6,C36A G59A C69A A97U C131A A147G,≤ -4.2
7,C35U G86U C95G,-3.9
8,C36U A37G U53A C54U C87G,≤ -4.2
9,C36G U144C,≤ -4.2
10,C36G C85A A113U,≤ -4.2
11,C35G C75G A121U,≤ -4.2
12,C35A G143A,≤ -4.2
13,C36A A47C G67U G92C A97C A119U C123G U127A,≤ -4.2
14,C36U A52G U61A C95A A122U U144A,≤ -4.2
15,C35G C87G U102A A113G,≤ -4.2
16,C36G C75G G136C,≤ -4.2
17,C35G C54U U61A C93A A98G A138G,≤ -4.2
18,C36A U45A U61A C87U A97C G126A,≤ -4.2
19,C35U A91U,≤ -4.2
20,C35U G50U G68A C99G C114U U139G,≤ -4.2
21,C35A U90C C96U A110G A121G,≤ -4.2
22,C36A G58A C93G A107C C118A,≤ -4.2
23,C36A C79A C93A A115G A121U,≤ -4.2
24,C35G C85A C105G A113U,≤ -4.2

row,Variant,polymerase ribozyme fitness (log ratio)
1,C36A G92A C99A A121C,≤ -4.2
2,C36A G46C C79U G88U U151A,≤ -4.2
3,C35U C43U G84A G94C,≤ -4.2
4,C36U A37U U56A A91C C116G,≤ -4.2
5,C35U A40U U55A C99A U101G G152A,≤ -4.2
6,C36A C105A,≤ -4.2
7,C36U A138C,≤ -4.2
8,C35A U90A U111C A137C,≤ -4.2
9,C35U A91G C95A,≤ -4.2
10,C36A A37U U55G U78C G83C C116A C123G A138U U148G,≤ -4.2
11,C35U G71C G81A A89C C95A,≤ -4.2
12,C36A G67C G68C A73U C87A U148C,≤ -4.2
13,C35U A40U C57U A60G G126U G141C U145C,≤ -4.2
14,C35U A60C A150C,≤ -4.2
15,C35G A73C C99G U146G,≤ -4.2
16,C36A U55A C63G C96U,≤ -4.2
17,C36G U55C U61G A97G,≤ -4.2
18,C36G G46C U102G C132A A142C U145A,≤ -4.2
19,C36U A37U G83U U135A,≤ -4.2
20,C35A U144G U151A,≤ -4.2
21,C35U C57G C87U C99G G136A U151G,≤ -4.2
22,C35U G80A A91G G136A,-3.57
23,C35U G92U A98G C105G G124U A150G,≤ -4.2
